Experimental findings from paper PMC6853952, “MUC4-ErbB2 Oncogenic Complex: Binding studies using Microscale Thermophoresis” (Scientific Reports, 2019) are described below.

The target in the assay is T1, recombinant human ErbB2-Fc chimera (human, UniProt P04626 part only).
T1 construct: ErbB2 receptor tyrosine kinase, human; extracellular domains, lacks the TM and CT part; Described as a disulfide-linked homodimeric protein; In the reverse model it was labelled on its 6His-tag with RED-tris-NTA dye (not covalent); also called recombinant ErbB2
The experiment in a line: MST; normal model, optimised conditions: MPer lysate with the eGFP fusion kept constant around 33 nM, Fc protein titrated 1:1 in PBS with 0.05% P20 from 1 µM to 0.05 nM; 80% MST power, MST-on 30 s; blue LED. As to conditions: one partner purified.

B1: eGFP-PD-1 (non-relevant eGFP fusion protein) (natural protein)
chain: [in this place about 150 residues]VGVVGGLLGSLVLLVWVLAVICSRAARGTIGARRTGQPLKEDPSAVPVFSVDYGELDFQWREKTPEPPVPCVPEQTEYATIVFPSGMGTSSPARRGSADGPRSAQPLRPEDGHCSWPL
notes: PD-1; source: cell lysate containing the eGFP-fused protein
The Kd is the constant that tells how readily two partners part at equilibrium. In the case of B1, the Kd was > 20 µM.
